# From the supplement of paper PMC4604168 (melanoma cell lines)
# The list shows a part of the results. Many values rest on one well or one pass, so single values are uncertain.
# System: WM3526
# Assay: cell count relative to DMSO control; melanoma cells; higher = more viable cells
# Conditions: library dose: low library concentration; 72 h
# 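Also: cell number obtained by counting DAPI-stained nuclei in high-throughput microscope images with image analysis software, screen run in 1,536-well plates.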
row,Structure (SMILES),cell count [%]
1,"Cn1cc(C2=C(c3cn(C4CCN(Cc5ccccn5)CC4)c4ccccc34)C(=O)NC2=O)c2ccccc21 [Enzastaurin] + Cn1c(=O)n(-c2ccc(C(C)(C)C#N)cc2)c2c3cc(-c4cnc5ccccc5c4)ccc3ncc21 [NVP-BEZ235] (first compound 0.8 µM, partner dose 0.004 µM)",118
2,"Cn1cc(C2=C(c3cn(C4CCN(Cc5ccccn5)CC4)c4ccccc34)C(=O)NC2=O)c2ccccc21 [Enzastaurin] + C=CCNC1=C2C[C@@H](C)C[C@H](OC)[C@H](O)[C@@H](C)/C=C(\C)[C@H](OC(N)=O)[C@@H](OC)/C=C\C=C(/C)C(=O)NC(=CC1=O)C2=O [Tanespimycin] (first compound 0.8 µM, partner dose 0.002 µM)",113
3,"Cn1cc(C2=C(c3cn(C4CCN(Cc5ccccn5)CC4)c4ccccc34)C(=O)NC2=O)c2ccccc21 [Enzastaurin] + Cn1nnc2c(C(N)=O)ncn2c1=O [temozolomide] (first compound 0.8 µM, partner dose 2 µM)",89.7
4,"C[C@]12O[C@H](C[C@]1(O)CO)n1c3ccccc3c3c4c(c5c6ccccc6n2c5c31)CNC4=O [Lestaurtinib] + CN(NC(=O)CC(=O)NN(C)C(=S)c1ccccc1)C(=S)c1ccccc1 [STA4783] (first compound 0.004 µM, partner dose 0.006 µM)",82.7
5,"C[C@]12O[C@H](C[C@]1(O)CO)n1c3ccccc3c3c4c(c5c6ccccc6n2c5c31)CNC4=O [Lestaurtinib] + C[C@]1(O)C[C@@H](c2nc(-c3ccc4ccc(-c5ccccc5)nc4c3)c3c(N)nccn32)C1 [OSI906] (first compound 0.004 µM, partner dose 0.4 µM)",62.9
6,"C[As](C)SC[C@H](NC(=O)CC[C@H](N)C(=O)O)C(=O)NCC(=O)O [Darinaparsin] + C/C(O)=C(\C#N)C(=O)Nc1cc(Br)ccc1Br [LFM-A13] (first compound 0.4 µM, partner dose 2 µM)",94.1
7,"C[C@]12O[C@H](C[C@]1(O)CO)n1c3ccccc3c3c4c(c5c6ccccc6n2c5c31)CNC4=O [Lestaurtinib] + Nc1ccn([C@@H]2O[C@H](CO)[C@@H](O)C2(F)F)c(=O)n1 [gemcitabine] (first compound 0.004 µM, partner dose 0.0004 µM)",93.2
8,"N.N.[Cl][Pt][Cl] [cisplatin] + C[As](C)SC[C@H](NC(=O)CC[C@H](N)C(=O)O)C(=O)NCC(=O)O [Darinaparsin] (first compound 1.6 µM, partner dose 0.4 µM)",96.3
9,"Cn1cc(C2=C(c3cn(C4CCN(Cc5ccccn5)CC4)c4ccccc34)C(=O)NC2=O)c2ccccc21 [Enzastaurin] + O=C(Nc1cccc(Cl)c1)Nc1ncc(CCNc2ncnc3ccsc23)s1 [SNS314] (first compound 0.8 µM, partner dose 0.0008 µM)",99.7
10,"N.N.[Cl][Pt][Cl] [cisplatin] + O=C(Nc1ccccc1)c1cc([N+](=O)[O-])ccc1Cl [GW9662] (first compound 1.6 µM, partner dose 2 µM)",87.9
11,"Cn1cc(C2=C(c3cn(C4CCN(Cc5ccccn5)CC4)c4ccccc34)C(=O)NC2=O)c2ccccc21 [Enzastaurin] + Cn1cc(/C=C2\C(=O)Nc3cccnc32)c2ccccc21 [GW441756] (first compound 0.8 µM, partner dose 0.4 µM)",111
12,"C[C@]12O[C@H](C[C@]1(O)CO)n1c3ccccc3c3c4c(c5c6ccccc6n2c5c31)CNC4=O [Lestaurtinib] + C=CCNC1=C2C[C@@H](C)C[C@H](OC)[C@H](O)[C@@H](C)/C=C(\C)[C@H](OC(N)=O)[C@@H](OC)/C=C\C=C(/C)C(=O)NC(=CC1=O)C2=O [Tanespimycin] (first compound 0.004 µM, partner dose 0.002 µM)",85.4
13,"N.N.[Cl][Pt][Cl] [cisplatin] + C[C@@H]1CCN(C(=O)CC#N)C[C@@H]1N(C)c1ncnc2[nH]ccc12 [CP690550] (first compound 1.6 µM, partner dose 1 µM)",90.5
14,"C[C@]12O[C@H](C[C@]1(O)CO)n1c3ccccc3c3c4c(c5c6ccccc6n2c5c31)CNC4=O [Lestaurtinib] + CCCS(=O)(=O)Nc1ccc(F)c(C(=O)c2c[nH]c3ncc(Cl)cc23)c1F [PLX4720] (first compound 0.004 µM, partner dose 0.08 µM)",78.6
15,"C[C@]12O[C@H](C[C@]1(O)CO)n1c3ccccc3c3c4c(c5c6ccccc6n2c5c31)CNC4=O [Lestaurtinib] + O=C(Nc1cccc(Cl)c1)Nc1ncc(CCNc2ncnc3ccsc23)s1 [SNS314] (first compound 0.004 µM, partner dose 0.0008 µM)",117
16,"C[C@]12O[C@H](C[C@]1(O)CO)n1c3ccccc3c3c4c(c5c6ccccc6n2c5c31)CNC4=O [Lestaurtinib] + Cc1cc(SCc2sc(-c3ccc(C(F)(F)F)c(F)c3)nc2C)ccc1OCC(=O)O [GW0742] (first compound 0.004 µM, partner dose 2 µM)",89.4
17,"N.N.[Cl][Pt][Cl] [cisplatin] + C=CCNC1=C2C[C@@H](C)C[C@H](OC)[C@H](O)[C@@H](C)/C=C(\C)[C@H](OC(N)=O)[C@@H](OC)/C=C\C=C(/C)C(=O)NC(=CC1=O)C2=O [Tanespimycin] (first compound 1.6 µM, partner dose 0.002 µM)",104
18,"C[As](C)SC[C@H](NC(=O)CC[C@H](N)C(=O)O)C(=O)NCC(=O)O [Darinaparsin] + Cn1c(Nc2ccc(C(F)(F)F)cc2)nc2cc(Oc3ccnc(-c4ncc(C(F)(F)F)[nH]4)c3)ccc21 [CHIR265] (first compound 0.4 µM, partner dose 0.08 µM)",50.1
19,"C[C@]12O[C@H](C[C@]1(O)CO)n1c3ccccc3c3c4c(c5c6ccccc6n2c5c31)CNC4=O [Lestaurtinib] + COc1ccc(-c2ccc3c(N4CCOCC4)nc(N4C[C@@H](C)O[C@@H](C)C4)nc3n2)cc1CO [KU0063794] (first compound 0.004 µM, partner dose 0.02 µM)",66.1
20,"C[C@]12O[C@H](C[C@]1(O)CO)n1c3ccccc3c3c4c(c5c6ccccc6n2c5c31)CNC4=O [Lestaurtinib] + c1cc(-c2cnn3cc(-c4ccc(OCCN5CCCCC5)cc4)cnc23)ccn1 [Dorsomorphin] (first compound 0.004 µM, partner dose 0.4 µM)",77
21,"C[As](C)SC[C@H](NC(=O)CC[C@H](N)C(=O)O)C(=O)NCC(=O)O [Darinaparsin] + Cc1ccc(NC(=O)c2cccc(N(C)C)c2)cc1NC(=O)c1ccc(O)cc1 [ZM336372] (first compound 0.4 µM, partner dose 2 µM)",93.8
22,"C[C@]12O[C@H](C[C@]1(O)CO)n1c3ccccc3c3c4c(c5c6ccccc6n2c5c31)CNC4=O [Lestaurtinib] + CN(c1ncccc1CNc1nc(Nc2ccc3c(c2)CC(=O)N3)ncc1C(F)(F)F)S(C)(=O)=O [PF562271] (first compound 0.004 µM, partner dose 0.08 µM)",86.2
23,"C[As](C)SC[C@H](NC(=O)CC[C@H](N)C(=O)O)C(=O)NCC(=O)O [Darinaparsin] + Cc1cc(SCc2sc(-c3ccc(C(F)(F)F)c(F)c3)nc2C)ccc1OCC(=O)O [GW0742] (first compound 0.4 µM, partner dose 2 µM)",145
24,"C[C@]12O[C@H](C[C@]1(O)CO)n1c3ccccc3c3c4c(c5c6ccccc6n2c5c31)CNC4=O [Lestaurtinib] + CC(=O)c1c(C)c2cnc(Nc3ccc(N4CCNCC4)cn3)nc2n(C2CCCC2)c1=O [palbociclib] (first compound 0.004 µM, partner dose 0.04 µM)",83.5
25,"N.N.[Cl][Pt][Cl] [cisplatin] + Cc1nc(Nc2ncc(C(=O)Nc3c(C)cccc3Cl)s2)cc(N2CCN(CCO)CC2)n1 [dasatanib] (first compound 1.6 µM, partner dose 0.004 µM)",76.8
26,"Cn1cc(C2=C(c3cn(C4CCN(Cc5ccccn5)CC4)c4ccccc34)C(=O)NC2=O)c2ccccc21 [Enzastaurin] + O=C(O)c1ccc(-c2c[nH]c3ncc(-c4ccccc4)cc23)cc1C1CCCC1 [GSK650394] (first compound 0.8 µM, partner dose 0.16 µM)",93.8
